These results are taken from PubChem BioAssay AID488969 (Vanderbilt High Throughput Screening Facility, 2010).

Structures are written as SMILES. Whole data set: some 110,000 compounds, median “z-score” near -0.1, cut for the highest 2% near 2. The list shows a part of the results. Active and inactive are the calls of the source.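 The calls were made as follows: active = z-score in the third read window above 3 or below -3; inactive = the rest.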 Residues, ends and D or L forms follow the SMILES beside them.

In this assay the target is Metabotropic glutamate receptor 8 (Rattus norvegicus) (UniProt P70579). The assay can be described thus: mGluR8 Gi/Go-coupled signaling modulation – cell-based, rat, thallium flux, HTS, primary screen (AID 488969). The following applies: HEK293 rat mGluR8, GIRK (G protein-gated inwardly rectifying potassium channel) thallium flux, FluoZin2; at 10 µM; stronger effect = higher value; submaximal glutamate (EC20) added with thallium.
Sequence of UniProt P70579 (P70579 whole entry, looked up): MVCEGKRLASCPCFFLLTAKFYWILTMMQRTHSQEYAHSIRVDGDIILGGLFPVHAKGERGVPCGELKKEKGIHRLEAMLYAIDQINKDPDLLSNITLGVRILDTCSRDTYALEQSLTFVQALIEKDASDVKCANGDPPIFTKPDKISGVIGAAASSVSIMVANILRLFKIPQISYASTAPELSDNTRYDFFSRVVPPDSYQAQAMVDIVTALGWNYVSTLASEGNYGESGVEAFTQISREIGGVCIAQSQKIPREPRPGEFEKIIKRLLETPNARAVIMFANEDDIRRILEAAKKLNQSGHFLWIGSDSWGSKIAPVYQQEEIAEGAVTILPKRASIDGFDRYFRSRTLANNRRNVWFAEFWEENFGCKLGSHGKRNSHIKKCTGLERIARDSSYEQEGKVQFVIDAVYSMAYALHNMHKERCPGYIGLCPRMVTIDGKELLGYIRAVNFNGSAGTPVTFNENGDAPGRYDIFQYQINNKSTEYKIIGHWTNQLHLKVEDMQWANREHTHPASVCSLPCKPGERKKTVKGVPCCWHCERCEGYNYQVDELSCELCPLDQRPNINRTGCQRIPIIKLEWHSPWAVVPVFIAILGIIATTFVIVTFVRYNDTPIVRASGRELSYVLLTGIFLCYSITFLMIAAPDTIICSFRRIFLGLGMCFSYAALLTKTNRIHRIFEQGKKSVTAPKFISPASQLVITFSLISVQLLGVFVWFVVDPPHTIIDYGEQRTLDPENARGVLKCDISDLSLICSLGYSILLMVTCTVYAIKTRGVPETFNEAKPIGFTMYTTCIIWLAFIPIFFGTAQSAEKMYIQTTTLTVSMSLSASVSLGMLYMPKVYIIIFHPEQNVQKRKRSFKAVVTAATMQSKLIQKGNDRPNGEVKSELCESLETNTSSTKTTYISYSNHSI
In the case of `Cc1ccc(S(=O)(=O)n2cnc3cc([N+](=O)[O-])ccc32)cc1C`, the z-score worked out at 2.81. Compound `C/C(=N\Nc1cc(-c2ccccc2)nc(-c2ccc(Br)cc2)n1)c1cccc(N)c1` gave a z-score of -0.0597.

Consider `COc1ccc(-n2c(CSc3nc(C)cc(C)n3)nnc2SCC(=O)Nc2nccs2)cc1`, for which the z-score is 0.17.

Compound `COc1cc2c(cc1OC)C(c1ccc(-c3ccc(Cl)c(Cl)c3)o1)=NCC2` gave a z-score of 0.559. To `COc1ccccc1CNc1ccc(N2CCCCC2)cc1` belongs -0.109; to `COc1ccccc1NC(=O)CCNC(=O)Cn1ccc2ccccc2c1=O`, 0.17. For `Cc1ccc(/C(O)=C2/C(=O)C(=O)N(CCN3CCOCC3)C2c2ccccn2)cc1` (configuration not stated) the value was -0.0547.

For the compound `CC1(c2ccccc2)NC(=O)N(CC(=O)Nc2ccc3c(c2)OCO3)C1=O` (configuration not stated), the z-score worked out at 0.061. For `CCOC(=O)[C@@H]1C(c2c(OC)cc(OC)cc2OC)=NO[C@@H]1C(=O)OCC` the value was -0.405. For `CCCCOc1ccc(C(=O)N/N=C/c2ccc(OCCN3CCCCC3)c(OC)c2)cc1` the value was -0.0807; for `COC(=O)C1C(=O)/C(=C(/C)N2CCCC2)C(=O)CC1(C)C` (configuration not stated), -0.0556; for `N#C/C(=C\c1ccc(N2CCCC2)c([N+](=O)[O-])c1)c1nc2ccccc2[nH]1`, 0.221. For `C#CCN(N(C)c1ncc(C(F)(F)F)cc1Cl)S(=O)(=O)c1ccc2ccccc2c1` the value was 0.398; for `O=C(O)C12C[C@H]3C[C@@H](C1)CC(n1ncc(N4CCN(c5ccccc5)CC4)c(Cl)c1=O)(C3)C2`, -0.544. The compound `Nc1ccc(C(=O)OCC(=O)Nc2cc([N+](=O)[O-])ccc2F)cc1` returned a z-score of 0.00777. To `CCOC(=O)/C(N=Nc1ccc(Cl)cc1)=C(/O)c1ccc([N+](=O)[O-])cc1` belongs 0.205. In the case of `COc1ccc(OC)c(NC(=O)CSc2nc(N)c(-c3ccccc3)c(=O)[nH]2)c1`, the z-score was -0.434. To `CCOC(=O)N1CCN(C(=O)c2ccc(N3C(=O)CCC3=O)cc2)CC1` belongs 0.917; to `CCN(CC)S(=O)(=O)c1cc(C(=O)Oc2cccc(-c3cnc4ccccc4n3)c2)ccc1Br`, -0.242. As to `O=C(Nc1nnc(-c2ccc3c(c2)CCCC3)o1)C1COc2ccccc2O1` (configuration not stated), the z-score is active: 7.22. To `CCN(CC)C(=O)CSc1nc2ccccc2o1` belongs -0.0356; to `CCN1C(=O)/C(=C/c2ccc(N3CCCC3)cc2)NC1=S`, 1.3.

For `CCOc1ccc(Cn2nnc(C(=O)Nc3cc(OC)cc(OC)c3)c2N)cc1`, the z-score is 0.25. Regarding `Cc1nc2ccccc2c2oc(C(=O)NCc3ccc4c(c3)OCO4)cc12`, the z-score was -0.416. For `O=C(NC1CCCC1)C(c1ccccn1)N(C(=O)c1csnn1)C1CCCC1` (configuration not stated) the value was 0.0557; for `CC(CNC(=O)C(C)(C)C)NC(=O)C(C)(C)C` (configuration not stated), 0.657.

Consider `COC(=O)C(NNc1ccccc1)(NC(=O)c1ccc(F)cc1)C(F)(F)F` (configuration not stated), for which the z-score is -0.175.

As to `c1ccc(CNc2ccc(CNc3ncn[nH]3)cc2)cc1`, the z-score was 0.0226. For `O=C(NCc1ccccc1)c1cccc(S(=O)(=O)N2CCOCC2)c1`, the z-score is -0.267. In turn, `Cc1ccc(NC(=O)Cc2ccc(-n3cccc3)cc2)c(C)c1` registered a z-score of -0.223. Compound `O=C(NC(Cc1c[nH]c2ccccc12)C(=O)O)c1ccccc1` (configuration not stated) showed a z-score of 0.919.

Compound `Cc1nc2c(C(=O)N3CCCC3)cnn2c(C)c1Cc1c(F)cccc1Cl` came in with a z-score of -0.165. To `O=C(c1ccco1)N1CCN(C(=O)C2CCCc3c2[nH]c2ccc(Cl)cc32)CC1` (configuration not stated) belongs 0.664.

As for `COc1cc2[nH]c(=S)n(Cc3ccco3)c(=O)c2cc1OC`, the z-score is -0.209. In turn, `O=C1NCCN/C1=C\C(=O)c1ccccc1` displayed a z-score of -0.207. For `Cc1ccc(OCC(O)CN2C(=O)NC(C)(C)C2=O)cc1` (configuration not stated) the value was -0.38; for `FC(F)(F)c1nnc(-c2ccccc2)nc1Oc1ccc(Cl)cc1Cl`, -0.78. `COc1ccc(CCNC(=O)c2[nH]c(C)c(C(C)=O)c2C)cc1`: the z-score turned out to be 0.356. In turn, `CC(=O)/C(=N/Nc1ccccc1)Sc1nnc(C(O)c2ccccc2)n1-c1ccccc1` (configuration not stated) gave a z-score of -0.33.

In the case of `CCOC(=O)c1cc(-c2ccco2)nc2c1c(C)nn2CCC#N`, the z-score is -0.644. For `Cc1ncc([N+](=O)[O-])n1CCOC(=O)NC(NCc1cccnc1)C(Cl)(Cl)Cl` (configuration not stated) the value was -0.077; for `O=C(Nc1ccc2c(c1)CCC2)c1ccc(Br)o1`, 0.541; for `CC(=O)[C@@H]1[C@@H](C(=O)c2ccc(C)cc2)[C@]2(C(=O)Nc3ccccc32)[C@H]2C=Cc3cc(F)ccc3N12`, 0.0643. To `CC1=Nc2ccccc2NC(=O)C1Sc1nnc(C)s1` (configuration not stated) belongs -0.879.

As to `CC(C)CNC(=O)CC(c1ccccc1)c1c(O)ccc2ccccc12` (configuration not stated), the z-score is -1.19. In turn, `Cc1nnc(SCC(=O)NCCc2ccccc2)[nH]c1=O` yielded a z-score of 0.28. With `Cc1ccsc1-c1ccnc(-n2cccc2)n1`, the z-score worked out at 0.125. For `COc1cc(NC(=O)c2cc(-c3ccco3)on2)c(OC)cc1Cl` the value was 0.0265; for `Nc1c(-c2ccccc2)c(CN2CCOCC2)nn1-c1ccc(C(=O)O)cc1`, 0.443. Turning to `COc1ccc(-n2c(COc3cccc(C)c3)nnc2SCC(=O)NCc2ccco2)cc1`, the z-score was -0.29. To `CCOc1ccc(NC(=O)C(C)SC(N)=O)cc1` (configuration not stated) belongs -0.575. As to `O=C(NCc1ccccc1)C1CCN(S(=O)(=O)N2CCCCCC2)CC1`, the z-score is 0.233.

Turning to `CCCn1c(SCC(=O)Nc2cccc(C)n2)nnc1-c1ccco1`, the z-score turned out to be 1.16. For `O=c1[nH]c(SCc2nc3c(cnn3-c3ccccc3)c(=O)[nH]2)nc2ccccc12` the value was -0.279; for `O=C(/C(C=Nc1cccc(C(F)(F)F)c1)=C(/O)c1ccco1)C(F)(F)F`, 0.128; for `Cc1cc(C)nc(NC(=NCCc2c[nH]c3ccccc23)NC(=O)Nc2ccc(Cl)c(Cl)c2)n1`, -0.0996. Compound `COc1ccc(/C=N/NC(=O)Cn2c(Cc3ccc(OC)c(OC)c3)nc3ccccc32)cc1OC` gave a z-score of -0.559. To `CCCCSc1nc(C)c(C(C)=O)cc1C#N` belongs 0.35; to `O=C(CCN1CCN(C(c2ccccc2)c2ccccc2)CC1)N/N=C/c1ccc(O)cc1`, -0.602; to `COc1ccc(Cl)cc1C(=O)NCC(c1ccco1)N1CCCC1` (configuration not stated), 0.25. `CCCCC(=O)Nc1ccc2oc(-c3ccncc3)nc2c1` showed a z-score of 0.0146.

In the case of `Cc1cccc(N(CC(=O)Nc2ccc(CC#N)cc2)S(C)(=O)=O)c1`, the z-score was -0.138. The compound `COc1ccc(OC)c(-n2c(-c3cc(-c4ccc(F)cc4)n[nH]3)n[nH]c2=S)c1` showed a z-score of -0.393. To `COCC(=O)Nc1cc(OC)c(Cl)cc1OC` belongs -0.118; to `Cc1nc(N2CCN(c3ncccn3)CC2)c2oc3ccccc3c2n1`, -0.533. `CC(=O)Nc1c(OC(C)=O)ccc2c(C)cc(=O)oc12`: the z-score was -0.24. The compound `O=C(Nn1cnnc1)c1cc2c(s1)CCCCC2` registered a z-score of -0.148.

`CCOc1ccccc1NC(=O)CSc1nnc2c(CC)c(C)nc(N)n12` yielded a z-score of 0.806. The compound `O=C(COC(=O)C1COc2ccccc2O1)Nc1ccc2c(c1)CCC2` (configuration not stated) yielded a z-score of -0.613. For `CC(CN(C)Cc1ccccc1)OC(=O)c1ccc(F)cc1` (configuration not stated) the value was -0.647. To `CCOc1ccc(CSC(=N)N)cc1[N+](=O)[O-]` belongs 0.854; to `Cc1ccccc1NC(=O)CN1C(=O)C2C3CC(C(Br)C3Br)C2C1=O` (configuration not stated), 0.11; to `COC(=O)CCC(=O)c1oc2ccc(OC)cc2c1N`, -0.054. `O=C(COc1ncnc2ccccc12)Nc1ccc(Cl)c([N+](=O)[O-])c1`: the z-score is 0.057.

The compound `COc1ccc2c(c1)c(N=O)c(O)n2C` displayed a z-score of -0.55. For `CCOC(=O)C1C(=O)C=C(c2ccc(C)cc2)CC1c1cccc([N+](=O)[O-])c1` (configuration not stated) the value was -0.259.

`CCOC(=O)c1[nH]c2ccccc2c1NC(=O)C1CCCCC1`: the z-score was -0.469. For the compound `CN(c1ccccc1C(=O)NCc1ccccn1)S(C)(=O)=O`, the z-score is 0.378.

In turn, `COC(=O)c1ccc(Oc2nc3c(c(=O)n(C)c(=O)n3C)n2CCC(C)C)cc1` yielded a z-score of 1.63. In the case of `O=C(CN1C(=O)CSc2ncccc21)NCCN1CCOCC1`, the z-score was -0.21. For `Cc1ccc(NC(=O)CSCC#N)cc1` the value was -0.515. With `CC1(C2CC2)NC(=O)NC1=O` (configuration not stated), the z-score is -0.156. As for `CN(C)S(=O)(=O)N(CC(=O)Nc1ccccc1C(F)(F)F)c1ccccc1`, the z-score is -0.553. To `COc1cccc(CNC(=O)C2=C(C)C(=O)OC23CCC(C)CC3)c1` (configuration not stated) belongs 0.296; to `O=C(CSc1nc2ccccc2c(=O)n1-c1ccccc1)c1c[nH]c2ccccc12`, 0.111.

`Cc1ccc(NC(=O)CCC(=O)n2nc(C)cc2C)c(C)c1` displayed a z-score of 0.195.

`COc1ccc(-n2cnnc2SCC(=O)N2CCN(c3ccccc3)CC2)cc1` displayed a z-score of -0.51. `CNc1oc(-c2ccc(OCc3ccccc3)cc2)nc1C#N` gave a z-score of -1.76. To `O=C(CSc1nc2ccccc2o1)c1cc2ccccc2oc1=O` belongs 0.0764. To `O=C1CCN(C(=O)Nc2cccc(Cl)c2)N1` belongs -0.0566; to `CCN(CC)CCN1C(=O)c2oc3ccccc3c(=O)c2C1c1ccc(F)cc1` (configuration not stated), active: 4.39. Compound `Nc1ccc2nc(-c3ccc(Cl)cc3)[nH]c2c1` came in with a z-score of -0.282. In turn, `Cc1cccc2c(C(=O)n3cccn3)cc(-c3ccccc3Cl)nc12` returned a z-score of 0.0843. For `FC(F)(F)c1cnc(Oc2ccccc2-c2nnc(-c3ccc(Cl)cc3)o2)c(Cl)c1` the value was 0.667.

`CCOc1ccc2[nH]c(=O)c(C(c3nnnn3CCOC)N3CCOCC3)cc2c1` (configuration not stated) showed a z-score of -0.578.

`COc1ccccc1NCC(O)Cn1c2ccccc2c2ccccc21` (configuration not stated) gave a z-score of 0.65. For the compound `COC(=O)C(CC(C)C)NC(=O)C(N)Cc1ccccc1` (stereo not drawn) (H-Phe-Leu-OMe; configuration not given here), the z-score is -0.144. `CC(C)(C)N(NC(=O)c1ccccc1)C(=O)c1cccc(C(=O)N(NC(=O)c2ccccc2)C(C)(C)C)c1` displayed a z-score of 0.0347. For `CC(C)N(CCNC(=O)c1cn(C)c2ccc(S(=O)(=O)N(C)C)cc2c1=O)Cc1ccccc1` the value was -0.183; for `O=C(/C=C/c1ccc(Br)cc1)NC(=S)NNC(=O)c1ccco1`, 0.734. For `Cc1ccc(SCC(=O)NNC(=O)C2CCCCC2)cc1` the value was -0.0681. On to `O=C(c1ccccc1)n1nc(-c2ccccc2)nc1NCc1ccco1`, for which the z-score worked out at 0.149. To `COc1ccccc1N1CCN(S(=O)(=O)c2c(C)ccc3nsnc23)CC1` belongs 0.895; to `CN1CCC(N(C)CC(=O)Nc2cccc(Oc3ccccc3)c2)CC1`, 0.0575. With `COc1ccc(C2C(C(=O)N3CCOCC3)CCC(=O)N2c2cc(OC)c(OC)c(OC)c2)cc1` (configuration not stated), the z-score is 0.336. For `Cc1ccsc1CNn1cnnc1SCc1ccc(Cl)cc1` the value was -0.235; for `O=C(CCNS(=O)(=O)c1cccs1)NCc1ccccc1`, -0.137.
